This experiment deals with T1, rat GLP-1 receptor (rat).
T1 chain: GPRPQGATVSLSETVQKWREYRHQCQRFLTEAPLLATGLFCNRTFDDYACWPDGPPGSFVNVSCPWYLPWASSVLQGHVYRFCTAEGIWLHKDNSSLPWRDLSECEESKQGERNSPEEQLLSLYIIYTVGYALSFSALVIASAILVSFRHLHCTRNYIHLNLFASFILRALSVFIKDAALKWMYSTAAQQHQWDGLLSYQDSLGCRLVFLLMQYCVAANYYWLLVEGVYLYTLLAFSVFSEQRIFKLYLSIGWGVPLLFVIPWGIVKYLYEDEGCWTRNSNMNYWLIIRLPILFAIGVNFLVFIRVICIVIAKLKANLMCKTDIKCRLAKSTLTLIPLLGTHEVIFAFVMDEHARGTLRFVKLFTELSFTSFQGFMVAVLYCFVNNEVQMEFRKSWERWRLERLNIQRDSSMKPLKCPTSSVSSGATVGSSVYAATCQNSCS
Nature of the experiment: displacement of 20 pM 125I-GLP-1 from COS cells transfected with the rat GLP-1 receptor cDNA.

B1: glucagon (ligand)
peptide: not shown
Usually IC50 stands for the concentration that inhibits the measured activity by half. A lower IC50 goes with greater potency. The molecule B1 came in with a concentration for half-maximal inhibition (IC50) of 1 µM.

For the origin of these results see patent publication US6051689, “Receptor for the glucagon-like-peptide (GLP-1)” (Novo Nordisk A/S, dated 2000).
